Laboratory results from PubChem BioAssay (Tox21).
Where “and” joins values, the source holds several entries; their conditions need not be identical. Equal values may be shown once. Inconclusive results, whose numbers are uncertain, are shown with a selection of clear calls. For some of these results: Potencies of inconclusive entries are doubtful fits and often do not repeat. The source holds several records for some structures; these can differ, active in one and inactive in another. Calls of active or inactive are those of the source. Unless noted, calls come from the whole dose curve; as a rule, active = well fitted curve in the direction sought with a large enough effect in the repeat runs; inconclusive = weak or mixed curves; inactive = no such curve, though single readings can be large; an effect the other way counts as inactive or inconclusive.

How the values were obtained:
[1] = qHTS assay to identify small molecule antagonists of the TGF-beta/Smad signaling pathway (AID 1346924; active = well fitted inhibition curve with a large enough effect in the signal ratio in the repeat runs, not every such curve was filed as active; inconclusive = weak or mixed curves; the % refers to the signal ratio); conditions: SBE-bla HEK293T, TGF-beta/Smad reporter, beta-lactamase ratio; activity, negative = inhibition: at 76.8 µM (top of the series) unless noted
In short: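 SBE-bla HEK 293T cells were plated overnight, then received compound in DMSO plus TGF-beta1 (added as a 0.25 ng/mL solution) and were incubated 5 h at 37 C. Beta-lactamase reporter activity was read after 2 h at room temperature with LiveBLAzer B/G FRET substrate (ex 405, em 460/530 nm).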

[2] = molecular target: Cytochrome P450 2C9 (Homo sapiens) (UniProt P11712); assay: Cytochrome P450 Family 2 Subfamily C Member 9 (CYP2C9) small molecule antagonists: luciferase reporter qHTS assay (AID 1671198); note: nearly all actives have a fitted effect of over 50% in size
In short: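 P450-Glo proluciferin substrate with CYP2C9 enzyme; 10 min RT preincubation, then NADPH regeneration 1 h at 37C; luciferin detection reagent 20 min RT, luminescence in relative luminescence units.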

[3] = molecular target: Cytochrome P450 1A2 (Homo sapiens) (UniProt P05177); assay: Cytochrome P450 Family 1 Subfamily A Member 2 (CYP1A2) small molecule antagonists: luciferase reporter qHTS assay (AID 1671199); note: nearly all actives have a fitted effect of over 50% in size
In short: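 Signal from luciferin formed by CYP1A2 from a proluciferin substrate is read as luminescence, expressed in relative luminescence units. Compounds sit with enzyme 10 min, NADPH-driven reaction runs 1 h, all at room temperature.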

[4] = molecular target: Voltage-gated inwardly rectifying potassium channel KCNH2 (Homo sapiens) (UniProt Q12809); assay: Human Ether-a-go-go-Related Gene (hERG) channel small molecule antagonists: fluorescence cell-based qHTS assay (AID 1671200); note: nearly all actives have a fitted effect of over 50% in size
In short: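 In this thallium-flux screen, overnight-cultured U2OS cells bearing the channel are dye-loaded in darkness for an hour, rested 10 min at room temperature, and then monitored kinetically at 480/540 nm for two minutes post-stimulus.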

[5] = Human pregnane X receptor (PXR) small molecule agonists, qHTS cell viability counter screen (AID 1346977); note: nearly all actives have a fitted effect of over 50% in size
In short: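 In each well, the PXR reporter HepG2 line was checked for viability: CellTiter-Fluor reagent added 23hr post-dosing, fluorescence read after 1hr incubation at 37C.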

[6] = Caspase-3/7 induction in CHO-K1 cells by small molecules, qHTS cell viability counter screen (AID 1346979); note: nearly all actives have a fitted effect of over 35% in size
In short: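 Following a 5hr settling period, CHO-K1 cells at 1,500 per well received DMSO-dissolved compounds. Cell viability was quantified 16hr later by CellTiter-Fluor fluorescence, measured after 1hr with reagent at 37C.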

[7] = Caspase-3/7 induction in HepG2 cells by small molecules, qHTS cell viability counter screen (AID 1346981); note: nearly all actives have a fitted effect of over 30% in size
In short: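 Counter screen for cytotoxicity: HepG2 exposed 16 hr to compounds, then CellTiter-Fluor viability signal (fluorescence, 1 hr reagent incubation).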

[8] = Caspase-3/7 induction in HepG2 cells by small molecules, qHTS assay (AID 1346978); note: nearly all actives have a fitted effect of over 15% in size
In short: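 Wild-type HepG2 cells, 2,000/well, settled 5 hr at 37 C and 5% CO2, then compound-treated for 17 hr; caspase-3/7 activity read by luminescent Caspase-Glo 3/7 after 30 min at room temperature.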

[9] = molecular target: Nuclear receptor subfamily 1 group I member 2 (Homo sapiens) (UniProt O75469); assay: Human pregnane X receptor (PXR) small molecule agonists, qHTS assay (AID 1346982); note: nearly all actives have a fitted effect of over 35% in size; for activation: % is set by controls: 0 for no effect and ±100 for the full control effect
In short: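 Luminescence (ONE-Glo, 30 min RT) after 24 hr compound exposure of PXR-Luc HepG2 cells; cells rested 5 hr post-plating in 5% charcoal-stripped FBS medium.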

[10] = molecular target: Nuclear receptor subfamily 1 group I member 2 (Homo sapiens) (UniProt O75469); assay: CYP3A4 induction through human pregnane X receptor (PXR) by small molecules, qHTS assay (AID 1346984); note: nearly all actives have a fitted effect of over 40% in size; for activation: % is set by controls: 0 for no effect and ±100 for the full control effect
In short: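 DPX-2 reporter cells; 24h cpd, 37C; Luciferin-IPA 3uM final x3h; One-Glo 30 min RT; lumi read.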

[11] = molecular target: Nuclear receptor subfamily 1 group I member 2 (Homo sapiens) (UniProt O75469); assay: Human pregnane X receptor (PXR) activation by small molecules, qHTS assay (AID 1346985); note: nearly all actives have a fitted effect of over 40% in size
In short: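 DPX-2 cells (HepG2 co-transfected with a PXR response element and a CYP3A4-promoter luciferase construct) were seeded at 2,000 per well, rested 5 hr at 37C, then exposed to DMSO-dissolved compounds for 24 hr. Activation was read as luciferase luminescence.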

[12] = molecular target: Cytochrome P450 2D6 (Homo sapiens) (UniProt P10635); assay: Cytochrome P450 Family 2 Subfamily D Member 6 (CYP2D6) small molecule antagonists: luciferase reporter qHTS assay (AID 1671196); note: nearly all actives have a fitted effect of over 50% in size
In short: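 Inhibition of CYP2D6 was gauged by loss of luminescence, since light produced tracks the luciferin generated from a proluciferin substrate. A 10 min room-temperature preincubation preceded 1 h NADPH-supported turnover.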

[13] = molecular target: Cytochrome P450 3A4 (Homo sapiens) (UniProt P08684); assay: Cytochrome P450 Family 3 Subfamily A Member 4 (CYP3A4) small molecule antagonists: luciferase reporter qHTS assay (AID 1671201); note: nearly all actives have a fitted effect of over 50% in size
In short: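 CYP3A4 activity was followed with a P450-Glo proluciferin substrate. Test compounds in DMSO were preincubated 10 min; NADPH regeneration then ran 1 h, and light output was read 20 min after detection reagent.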

[14] = Caspase-3/7 induction in CHO-K1 cells by small molecules, qHTS assay (AID 1346980); note: nearly all actives have a fitted effect of over 15% in size
In short: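 Wild-type CHO-K1 cells exposed to compounds for 17hr at 37 C, 5% CO2. Caspase-3/7 activity then measured by Caspase-Glo 3/7 luminescence after 30min at room temperature.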

[15] = molecular target: Nuclear receptor subfamily 1 group I member 2 (Rattus norvegicus) (UniProt Q9R1A7); assay: Rat pregnane X receptor (rPXR) activation by small molecules, qHTS assay (AID 1346983); conditions: rPXR luciferase reporter cells, One-Glo luminescence, 24 h; max activation: stronger effect = higher value; note: nearly all actives have a fitted effect of over 20% in size
In short: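 Cell-based rPXR activation assay: rPXR cells, 2,000 per well, rested 5hr at 37 C, then exposed to compounds in DMSO for 24 hr at 37 C. Luciferase activity read by One-Glo luminescence after 30 min at room temperature.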

[16] = molecular target: Cytochrome P450 2C19 (Homo sapiens) (UniProt P33261); assay: Cytochrome P450 Family 2 Subfamily C Member 19 (CYP2C19) small molecule antagonists: luciferase reporter qHTS assay (AID 1671197); note: nearly all actives have a fitted effect of over 65% in size
In short: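 First, compounds are pinned into enzyme-substrate mix and held 10 min at room temperature. Second, NADPH regeneration solution is added and plates incubate 1 h at 37C. Third, detection reagent is added and luminescence read after 20 min.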
Potency is the fitted concentration of half-maximal effect; tags give direction and shape of the fitted curve or compound fluorescence and quenching.

UniProt P10635, sequence (P10635 whole entry, looked up): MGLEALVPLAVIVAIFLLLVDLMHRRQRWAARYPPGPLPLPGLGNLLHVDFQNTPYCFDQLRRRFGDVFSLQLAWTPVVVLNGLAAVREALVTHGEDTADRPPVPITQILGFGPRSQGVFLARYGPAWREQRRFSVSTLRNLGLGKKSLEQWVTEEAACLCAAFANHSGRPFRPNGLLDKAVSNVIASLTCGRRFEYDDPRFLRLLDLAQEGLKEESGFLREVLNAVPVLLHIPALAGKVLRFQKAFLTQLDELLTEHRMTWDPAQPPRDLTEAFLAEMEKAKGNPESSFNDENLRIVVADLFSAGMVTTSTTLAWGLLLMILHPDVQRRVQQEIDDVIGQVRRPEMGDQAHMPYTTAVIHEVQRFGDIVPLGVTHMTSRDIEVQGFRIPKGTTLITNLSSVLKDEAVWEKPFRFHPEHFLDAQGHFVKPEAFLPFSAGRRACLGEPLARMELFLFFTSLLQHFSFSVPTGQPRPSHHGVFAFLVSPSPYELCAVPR
UniProt P05177, sequence (P05177 whole entry, looked up): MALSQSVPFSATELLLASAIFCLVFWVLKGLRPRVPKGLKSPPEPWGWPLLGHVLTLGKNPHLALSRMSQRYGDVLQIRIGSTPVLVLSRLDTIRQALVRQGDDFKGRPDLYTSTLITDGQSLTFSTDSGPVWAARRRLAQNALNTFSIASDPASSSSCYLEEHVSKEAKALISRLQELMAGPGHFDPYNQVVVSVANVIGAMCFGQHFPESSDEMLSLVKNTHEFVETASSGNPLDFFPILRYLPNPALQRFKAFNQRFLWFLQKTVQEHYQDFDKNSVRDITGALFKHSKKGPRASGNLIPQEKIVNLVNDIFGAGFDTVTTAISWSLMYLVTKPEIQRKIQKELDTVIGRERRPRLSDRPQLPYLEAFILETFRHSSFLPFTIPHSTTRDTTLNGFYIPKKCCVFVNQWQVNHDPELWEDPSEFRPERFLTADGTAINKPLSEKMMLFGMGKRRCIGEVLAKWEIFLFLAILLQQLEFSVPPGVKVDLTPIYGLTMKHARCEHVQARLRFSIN
UniProt Q12809, sequence (Q12809 whole entry, looked up): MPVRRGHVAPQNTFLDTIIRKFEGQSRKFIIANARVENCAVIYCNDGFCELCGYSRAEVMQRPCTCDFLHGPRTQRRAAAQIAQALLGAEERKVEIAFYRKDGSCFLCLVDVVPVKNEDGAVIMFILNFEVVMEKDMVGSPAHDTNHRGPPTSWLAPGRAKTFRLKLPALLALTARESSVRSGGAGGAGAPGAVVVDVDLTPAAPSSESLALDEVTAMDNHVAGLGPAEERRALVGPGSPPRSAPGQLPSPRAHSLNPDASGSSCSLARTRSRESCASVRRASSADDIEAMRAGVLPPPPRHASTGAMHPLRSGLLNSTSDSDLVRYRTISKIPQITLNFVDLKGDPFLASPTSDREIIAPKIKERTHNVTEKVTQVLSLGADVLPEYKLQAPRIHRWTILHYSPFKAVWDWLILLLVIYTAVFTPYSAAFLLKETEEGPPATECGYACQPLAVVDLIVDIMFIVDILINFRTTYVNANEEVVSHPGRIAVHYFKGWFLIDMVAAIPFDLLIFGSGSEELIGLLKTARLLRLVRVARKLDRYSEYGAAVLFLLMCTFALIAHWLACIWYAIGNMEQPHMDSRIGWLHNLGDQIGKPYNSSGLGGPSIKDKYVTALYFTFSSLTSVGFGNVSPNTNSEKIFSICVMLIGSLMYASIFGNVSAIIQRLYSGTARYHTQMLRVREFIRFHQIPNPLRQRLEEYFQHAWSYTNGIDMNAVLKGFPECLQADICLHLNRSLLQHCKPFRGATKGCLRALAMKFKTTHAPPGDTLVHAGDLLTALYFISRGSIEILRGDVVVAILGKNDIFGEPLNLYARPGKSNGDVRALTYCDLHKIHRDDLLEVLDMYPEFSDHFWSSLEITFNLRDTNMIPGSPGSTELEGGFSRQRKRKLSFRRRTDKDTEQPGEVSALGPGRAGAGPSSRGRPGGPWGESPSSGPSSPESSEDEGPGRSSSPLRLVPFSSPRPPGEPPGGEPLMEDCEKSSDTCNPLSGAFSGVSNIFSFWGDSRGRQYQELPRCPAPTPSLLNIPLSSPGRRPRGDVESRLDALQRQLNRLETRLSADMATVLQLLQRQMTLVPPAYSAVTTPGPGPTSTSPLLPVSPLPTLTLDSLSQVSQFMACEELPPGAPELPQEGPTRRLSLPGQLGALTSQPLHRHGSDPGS
UniProt P11712, sequence (P11712 whole entry, looked up): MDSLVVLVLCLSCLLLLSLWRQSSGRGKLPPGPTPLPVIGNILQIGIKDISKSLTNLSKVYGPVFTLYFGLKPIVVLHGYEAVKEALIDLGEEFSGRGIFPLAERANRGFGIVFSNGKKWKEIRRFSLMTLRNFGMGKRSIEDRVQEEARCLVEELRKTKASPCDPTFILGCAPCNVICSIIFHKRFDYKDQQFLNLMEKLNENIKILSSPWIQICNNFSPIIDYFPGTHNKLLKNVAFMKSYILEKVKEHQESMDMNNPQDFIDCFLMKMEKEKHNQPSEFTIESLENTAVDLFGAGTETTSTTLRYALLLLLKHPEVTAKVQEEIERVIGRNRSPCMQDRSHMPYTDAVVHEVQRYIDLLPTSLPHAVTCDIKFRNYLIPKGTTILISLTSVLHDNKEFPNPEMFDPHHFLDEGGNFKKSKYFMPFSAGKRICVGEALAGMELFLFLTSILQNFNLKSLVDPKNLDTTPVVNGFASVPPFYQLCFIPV
UniProt Q9R1A7, sequence (Q9R1A7 whole entry, looked up): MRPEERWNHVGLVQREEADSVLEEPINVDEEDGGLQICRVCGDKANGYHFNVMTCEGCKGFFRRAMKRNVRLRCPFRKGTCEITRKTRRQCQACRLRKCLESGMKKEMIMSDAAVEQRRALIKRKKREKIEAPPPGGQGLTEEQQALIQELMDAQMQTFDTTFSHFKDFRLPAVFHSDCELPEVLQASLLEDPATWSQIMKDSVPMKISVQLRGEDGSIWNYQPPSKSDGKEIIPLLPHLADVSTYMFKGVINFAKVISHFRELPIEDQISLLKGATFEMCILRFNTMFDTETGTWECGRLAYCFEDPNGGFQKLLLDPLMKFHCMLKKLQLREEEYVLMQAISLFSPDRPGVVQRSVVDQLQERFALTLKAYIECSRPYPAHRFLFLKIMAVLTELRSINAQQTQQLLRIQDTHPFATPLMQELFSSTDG
UniProt P08684, sequence (P08684 whole entry, looked up): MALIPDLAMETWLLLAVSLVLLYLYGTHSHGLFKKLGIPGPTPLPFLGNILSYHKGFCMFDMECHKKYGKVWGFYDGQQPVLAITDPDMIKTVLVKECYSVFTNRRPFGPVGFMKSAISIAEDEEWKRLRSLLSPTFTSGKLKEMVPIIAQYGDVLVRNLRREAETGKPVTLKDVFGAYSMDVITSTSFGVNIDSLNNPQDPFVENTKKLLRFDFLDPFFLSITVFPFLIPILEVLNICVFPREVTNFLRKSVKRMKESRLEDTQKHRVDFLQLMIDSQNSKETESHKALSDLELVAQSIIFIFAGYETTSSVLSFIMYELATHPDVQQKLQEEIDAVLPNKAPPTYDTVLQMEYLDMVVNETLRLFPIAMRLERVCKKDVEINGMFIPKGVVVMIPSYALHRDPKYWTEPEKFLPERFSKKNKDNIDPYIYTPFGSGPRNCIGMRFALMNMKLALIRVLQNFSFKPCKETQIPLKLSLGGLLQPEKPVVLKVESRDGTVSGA
UniProt P33261, sequence (P33261 whole entry, looked up): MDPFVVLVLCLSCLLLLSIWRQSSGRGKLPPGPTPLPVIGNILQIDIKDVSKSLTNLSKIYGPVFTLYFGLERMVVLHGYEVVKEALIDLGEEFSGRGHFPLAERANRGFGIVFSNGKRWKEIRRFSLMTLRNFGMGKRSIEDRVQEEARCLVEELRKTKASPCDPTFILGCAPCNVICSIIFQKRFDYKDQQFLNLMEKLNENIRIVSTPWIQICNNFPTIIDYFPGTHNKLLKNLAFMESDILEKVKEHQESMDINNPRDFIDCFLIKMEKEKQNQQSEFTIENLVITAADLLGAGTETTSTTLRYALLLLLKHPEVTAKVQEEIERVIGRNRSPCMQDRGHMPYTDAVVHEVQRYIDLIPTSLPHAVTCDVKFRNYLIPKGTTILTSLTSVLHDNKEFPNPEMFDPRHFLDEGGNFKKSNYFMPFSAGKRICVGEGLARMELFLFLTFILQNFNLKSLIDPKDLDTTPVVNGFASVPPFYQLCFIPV

Compound: CCCCCCCC/C=C\CCCCCCCC(=O)N(C)CC(=O)O
- Potency [1]: inconclusive: 49 µM [rising, single point]
- Potency [2]: active: 44.8 µM
- Potency [3]: inactive

Compound: CCOC(=O)c1c(N)sc2c1CCN(Cc1ccccc1)C2
- activity, negative = inhibition [1]: inconclusive: -2.29% [at 35.3 µM]
- Potency [3]: active: 15.5 µM
- Potency [4]: inconclusive: 21.3 µM [inhibitor]

Compound: CC1(C)O[C@H]2CC(=O)OC[C@]23[C@H]2CC[C@@]4(C)[C@H](c5ccoc5)OC(=O)[C@H]5O[C@]54[C@]2(C)C(=O)C[C@@H]13
- activity, negative = inhibition [1]: inconclusive: 7.07% [at 35.3 µM]
- Potency [2]: inactive
- Potency [3]: inactive

Compound: Cc1cnc(NC(=O)C2=C(O)c3ccccc3S(=O)(=O)N2C)s1
- Potency [5]: inconclusive: 56.2 µM [cytotoxic]
- Potency [6]: active: 61.3 µM and inconclusive: 34.4 µM [cytotoxic, partial curve] and inactive
- Potency [7]: inconclusive: 68.7 µM [cytotoxic, single point] and inconclusive: 30.6 µM [cytotoxic, partial curve]
- Potency [3]: inconclusive: 35.7 µM [inhibitor]

Compound: O=C(c1ccccc1)c1ccc(O)cc1O
- Potency [5]: inconclusive: 70.8 µM [cytotoxic, single point]

Compound: COc1ccc2cc1Oc1ccc(cc1)C[C@H]1c3c(cc4c(c3Oc3cc5c(cc3OC)CCN(C)[C@@H]5C2)OCO4)CCN1C
- Potency [5]: active: 11.9 µM
- Potency [8]: inconclusive: 33.5 µM [activator, single point]
- Potency [9]: active: 9.44 µM
- Potency [10]: active: 10 µM
- Potency [11]: inconclusive: 28.2 µM [activator, single point]
- Potency [3]: inactive
- Potency [4]: active: 9.52 µM

Compound: CC(S)C(C)S (stereo not drawn)
- activity, negative = inhibition [1]: inconclusive: -30%
- Potency [3]: inconclusive: 42.3 µM [inhibitor, partial curve]

Compound: CCCCC/C=C\C/C=C\CCCCCCCC(=O)O
- Potency [5]: inconclusive: 50.1 µM [cytotoxic, single point]
- Potency [8]: inconclusive: 60.1 µM [activator, partial curve]
- Potency [6]: inconclusive: 68.6 µM [cytotoxic, single point]
- Potency [7]: inconclusive: 67.5 µM [cytotoxic, partial curve, poor fit]
- Potency [9]: active: 60.1 µM and inconclusive: 61.1 µM [activator, single point]
- Potency [12]: inconclusive: 39.9 µM [inhibitor]
- Potency [13]: inconclusive: 31.2 µM [inhibitor, partial curve]

Compound: CCCOC(=O)c1cc(O)c(O)c(O)c1
- Potency [14]: inconclusive: 68.6 µM [activator, single point]

Compound: CCCN(CCc1cccs1)[C@H]1CCc2c(O)cccc2C1
- Potency [10]: inactive

Compound: CCCCN(CCCC)CC(O)c1cc(Cl)cc2c1-c1ccc(Cl)cc1/C2=C/c1ccc(Cl)cc1 (stereo not drawn)
- Potency [14]: inconclusive: 33.5 µM [activator, single point]
- Potency [7]: inconclusive: 33.5 µM [cytotoxic, single point]
- Potency [9]: inconclusive: 9.44 µM [activator, partial curve, poor fit]
- Potency [15]: inconclusive: 25.1 µM [activator, partial curve]
- Potency [10]: active: 10 µM

Compound: CCCCCCCCCCCCCC[N+](C)(C)C
- Potency [7]: inconclusive: 29.6 µM [cytotoxic, partial curve] and active: 61.1 µM and inconclusive: 29.8 µM [cytotoxic, partial curve]

Compound: C[C@@H]1CC[C@H]2C(C)(C)[C@H]3C[C@@]12CC[C@@]3(C)O
- Potency [9]: inactive

Compound: C=C(C)C(=O)OCCCCCCCCCCOC(=O)C(=C)C
- Potency [8]: inactive
- Potency [2]: inconclusive: 35.6 µM [inhibitor]
- Potency [4]: inconclusive: 21.9 µM [inhibitor, partial curve, poor fit]

Compound: CO/N=C1\CN(c2nc3c(cc2F)c(=O)c(C(=O)O)cn3C2CC2)CC1CN (stereo not drawn)
- Potency [6]: inconclusive: 33.5 µM [cytotoxic]

Compound: c1ccc(CSCc2ccccc2)cc1
- Potency [6]: inconclusive: 54.3 µM [cytotoxic, partial curve, poor fit]
- Potency [9]: active: 27.2 µM
- Potency [12]: inconclusive: 79.4 µM [inhibitor, partial curve, poor fit]
- Potency [4]: inconclusive: 34.6 µM [inhibitor, partial curve]

Compound: CC(C)C(C)(C)C(C)(C)C(C)(C)S
- Potency [6]: inconclusive: 48.6 µM [rising, partial curve, poor fit]
- Potency [7]: inconclusive: 43.3 µM [rising, partial curve, poor fit]
- Potency [2]: active: 46.1 µM

Compound: NC1=NCC2c3ccccc3Cc3ccccc3N12 (stereo not drawn)
- Potency [6]: inactive

Compound: O=S(=O)(O)c1ccc(Nc2nc(Nc3ccc(/C=C/c4ccc(Nc5nc(Nc6ccc(S(=O)(=O)O)cc6)nc(N(CCO)CCO)n5)cc4S(=O)(=O)O)c(S(=O)(=O)O)c3)nc(N(CCO)CCO)n2)cc1
- Potency [6]: inactive

Compound: Nc1cccc(N)n1
- Potency [6]: inconclusive: 33.2 µM [rising, partial curve]
- Potency [7]: inconclusive: 74.3 µM [rising, partial curve]
- Potency [12]: inconclusive: 61.2 µM [inhibitor, partial curve] and inconclusive: 44.8 µM [inhibitor, partial curve]
- Potency [16]: inconclusive: 77 µM [inhibitor]
- Potency [2]: inconclusive: 38.6 µM [inhibitor, partial curve] and inconclusive: 56.4 µM [inhibitor, partial curve]
- Potency [3]: inconclusive: 63.3 µM [inhibitor]
